Assay results: PubChem BioAssay AID651820 (National Center for Advancing Translational Sciences (NCATS), 2012)
Several values for one entry are separate records, joined by “and”; a condition that tells them apart may be missing. Equal entries are not always repeated. About 12,000 (3.5%) of roughly 340,000 compounds were called active. This list was built around the results that the source calls inconclusive (neither active nor inactive); the mix of calls is not that of the screen. The call rests on the fitted dose curve; in most records, active means well fitted inhibition curve with a large enough effect; inconclusive means small, poorly fitted or top-dose-only effect, or another doubt; inactive means no such curve, though single readings can be large or run the other way. Where the call is inconclusive, the potency comes from a doubtful curve fit.

Assay: qHTS Assay for Inhibitors of Hepatitis C Virus (HCV)
Conditions: Huh7.5.1 HCVcc-Cre (HCVcc is cell-culture hepatitis C virus) infection, luciferase reporter, 44 h; series mostly up to 41.8 µM
Procedure, shortened: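 Seed cells (1,000/well) for 4 h; treat with compound and infect with HCVcc-Cre, moi about 0.5. Incubate 44 h, then detect luciferase activity.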
Potency means the concentration at half of the fitted maximal effect; tags describe the fitted curve by direction and shape.

Question: With CCOC(=O)c1ccccc1NC(=O)c1cn(-c2ccc(C)c(C)c2)c(=O)c2ccccc12 as the molecule, how does the Potency read?
Answer: inconclusive: 3.98 µM [inhibitor, partial curve]

Question: With CCCNC(=O)C(Cc1ccccc1)NC(=O)c1ccc(C(C)(C)C)cc1 (centres undefined) as the molecule, how does the Potency read?
Answer: inactive

Question: Which Potency does the source give for O=[N+]([O-])c1ccccc1/C=N/Nc1nccnc1Cl here?
Answer: inactive

Question: For CSc1ccccc1C(=O)C1CCCN(C(=O)c2ccc(N3CCOCC3)cc2)C1 (centres undefined), which Potency is on record?
Answer: inconclusive: 8.91 µM [inhibitor, partial curve]

Question: For CCN(CC)CC(=O)Nc1ccc2c(c1)Nc1ccccc1CC2, which Potency is on record?
Answer: active: 12.6 µM

Question: Which Potency does the source give for CC(=O)Cn1nnc2sc(-c3ccccc3)cc2c1=O here?
Answer: inactive

Question: With Oc1c(C2=NCCNC(C(F)(F)F)=C2)ccc2ccccc12 as the molecule, how does the Potency read?
Answer: inconclusive: 31.6 µM [inhibitor, single point]

Question: With COC(=O)c1ccc(-n2nc(C(F)(F)F)c3c2-c2ccoc2CC3)cc1 as the molecule, how does the Potency read?
Answer: inconclusive: 2.82 µM [inhibitor, single point]

Question: With O=C(NC1CCCCCCC1O)c1ccccc1 (centres undefined) as the molecule, how does the Potency read?
Answer: inactive

Question: Which Potency does the source give for Cc1c(OC(C)C(=O)NCc2ccccn2)ccc2c3c(c(=O)oc12)CCCC3 (centres undefined) here?
Answer: inconclusive: 10 µM [inhibitor, partial curve]

Question: For c1ccc(-c2nc(-c3nccc4ccccc34)oc2-c2ccccc2)cc1, which Potency is on record?
Answer: inconclusive: 7.08 µM [inhibitor, partial curve]

Question: For O=C(CSC1=Nc2ccccc2C2CC=NN12)NCc1ccco1 (centres undefined), which Potency is on record?
Answer: inconclusive: 22.4 µM [inhibitor, single point]

Question: For Cc1ccc(S(=O)(=O)NC(C)C(=O)Nc2ccccc2C(=O)N2CCCC2)cc1 (centres undefined), which Potency is on record?
Answer: inconclusive: 5.01 µM [inhibitor, single point]

Question: Which Potency does the source give for Fc1ccc2cnc(CCO[C@H]3CCCCO3)cc2c1 here?
Answer: inactive

Question: For CCOC(=O)c1c(C)[nH]c(C(=O)COC(=O)c2c(CC)noc2C)c1C, which Potency is on record?
Answer: active: 14.1 µM

Question: With CC(OC(=O)C(C)Oc1ccccc1)C(=O)Nc1ccc(S(=O)(=O)N2CCCCC2)cc1 (centres undefined) as the molecule, how does the Potency read?
Answer: inactive

Question: With CCC(=O)c1ccc(OCC(=O)Nc2ccccc2C(=O)NC2CC2)cc1 as the molecule, how does the Potency read?
Answer: inconclusive: 31.6 µM [inhibitor, single point]

Question: With COc1ccccc1-c1oc2ccccc2c1C#CCCO as the molecule, how does the Potency read?
Answer: active: 14.1 µM

Question: With CS(=O)c1ccccc1-c1nc(-c2ccc(Cl)cc2)no1 (centres undefined) as the molecule, how does the Potency read?
Answer: inconclusive: 7.08 µM [inhibitor, partial curve]

Question: For Cc1cc(NCCN)nc2ccccc12, which Potency is on record?
Answer: inconclusive: 12.6 µM [inhibitor, partial curve]

Question: For O=C(CCl)Nc1cccc(CP(=O)(c2ccccc2)c2ccccc2)c1, which Potency is on record?
Answer: inconclusive: 11.2 µM [inhibitor, partial curve]

Question: For COc1ccc(Nc2cc(C)nc(NCc3ccccc3)n2)cc1, which Potency is on record?
Answer: inconclusive: 31.6 µM [inhibitor, single point]

Question: Which Potency does the source give for CC(C)(C)c1ccc(-c2noc(CCC(=O)Nc3cccnc3)n2)cc1 here?
Answer: inconclusive: 31.6 µM [inhibitor, single point]

Question: For Clc1cccc(-c2cc3nc4c(c(N5CCOCC5)n3n2)CCCC4)c1, which Potency is on record?
Answer: inconclusive: 3.16 µM [inhibitor, partial curve]

Question: For CC(=O)Cc1nsc(NC(=O)c2ccc(-c3ccccc3Cl)o2)n1, which Potency is on record?
Answer: inconclusive: 31.6 µM [inhibitor, single point]

Question: For O=C(CCn1cccc1)N1CCc2ccccc21, which Potency is on record?
Answer: inactive

Question: With COc1ccc(OC2C(=O)N(Cc3ccc4c(c3)OCO4)C2c2cccs2)cc1 (centres undefined) as the molecule, how does the Potency read?
Answer: inconclusive: 31.6 µM [inhibitor, single point]

Question: With COc1ccc(NC(=O)CSc2nc3c(c(=O)n(C)c(=O)n3C)n2C)c(OC)c1 as the molecule, how does the Potency read?
Answer: inactive

Question: With O=C(CSc1nc2nn(-c3ccccc3)c(=O)c-2c2n1CCCCC2)NCCc1ccccc1 as the molecule, how does the Potency read?
Answer: inconclusive: 10 µM [inhibitor, single point]

Question: For COc1ccc(NC(=O)CN2CCN(c3c(C)cccc3C)CC2)cc1, which Potency is on record?
Answer: inconclusive: 25.1 µM [inhibitor, single point]

Question: Which Potency does the source give for CCc1ccc(-c2ccc3nnc(SC)n3n2)cc1 here?
Answer: inactive

Question: For OCCNCCCCOc1ccc(OCc2ccccc2)cc1, which Potency is on record?
Answer: inconclusive: 8.91 µM [inhibitor, partial curve]

Question: With CC(C)CCNC(=O)c1ccc2c(Cl)c3c(nc2c1)CCC3 as the molecule, how does the Potency read?
Answer: inconclusive: 14.1 µM [inhibitor, single point]

Question: With CC(=O)Oc1c(C)cc(O)c2ccccc12 as the molecule, how does the Potency read?
Answer: active: 10 µM

Question: With Cc1cccc(N(Cc2ccccc2)C(=O)c2cc(S(=O)(=O)N3CCOCC3)ccc2F)c1 as the molecule, how does the Potency read?
Answer: inactive

Question: Which Potency does the source give for OC1(c2ccc(F)cc2)CN(c2ccccc2)C2=[N+]1CCS2 (centres undefined) here?
Answer: inconclusive: 12.6 µM [inhibitor, partial curve]

Question: With Cc1ccc(C)c2[nH]c(=O)c(C(c3nnnn3C(C)(C)C)N3CC=C(c4ccc(F)cc4)CC3)cc12 (centres undefined) as the molecule, how does the Potency read?
Answer: inactive and inconclusive: 31.6 µM [inhibitor, single point]

Question: With CCN1C(=O)[C@H]2[C@@H](c3ccc(-c4ccc(F)cc4)c(OC)c3)N[C@@](CC(C)C)(C(=O)OC)[C@H]2C1=O as the molecule, how does the Potency read?
Answer: inactive

Question: Which Potency does the source give for CCCCCCn1c(C)nc2c(c1=O)c1nc3ccccc3nc1n2/N=C/c1ccco1 here?
Answer: inconclusive: 15.8 µM [inhibitor, partial curve, poor fit]

Question: With NC(=O)N/N=C/c1ccc([N+](=O)[O-])o1 as the molecule, how does the Potency read?
Answer: inconclusive: 31.6 µM [inhibitor, single point]

Question: With COc1cccc(CN(C)C(=O)c2cc(S(=O)(=O)N3CCN(c4ccccc4)CC3)ccc2Cl)c1 as the molecule, how does the Potency read?
Answer: inconclusive: 11.2 µM [inhibitor, partial curve]

Question: For O=C(Nc1ccc(Br)cc1Cl)c1ccc(OCC2CCCO2)cc1 (centres undefined), which Potency is on record?
Answer: inconclusive: 31.6 µM [inhibitor, single point]

Question: With c1ccc2c(N3CCCCCC3)nc(-c3ccncc3)nc2c1 as the molecule, how does the Potency read?
Answer: active: 8.91 µM

Question: Which Potency does the source give for Cc1onc(-c2ccccc2)c1C(=O)OCC(=O)Nc1ccc(Cl)cc1 here?
Answer: active: 10 µM

Question: Which Potency does the source give for CN(C)S(=O)(=O)c1cc(C(=O)NCc2ccccc2)c(Cl)cc1Cl here?
Answer: active: 12.6 µM

Question: Which Potency does the source give for C=C1c2c(Cl)ccc(O)c2C(O)=C2C(=O)[C@]3(O)C(O)=C(C(N)=O)C(=O)[C@@H](N(C)C)[C@@H]3[C@@H](O)C12 (some centres undefined) here?
Answer: inconclusive: 10 µM [inhibitor, single point]

Question: For CC(C)(c1ccccc1)c1ccc(OCC(O)CN2CCCC2)cc1 (centres undefined), which Potency is on record?
Answer: inconclusive: 11.2 µM [inhibitor, partial curve]

Question: Which Potency does the source give for CCOC(=O)C1(Cc2ccc(Cl)cc2)CCN(CCCn2cccn2)CC1 here?
Answer: active: 3.16 µM

Question: For Cc1ccc(C(=O)c2c3ccc([N+](=O)[O-])cc3[n+]([O-])n2CCCC(N)=O)cc1, which Potency is on record?
Answer: active: 10 µM

Question: Which Potency does the source give for COc1cc(/C=C2\SC(=Nc3ccc(O)cc3)NC2=O)cc(OC)c1OC here?
Answer: active: 3.98 µM

Question: With CCc1nc(-c2ccccc2)c2ccccn12 as the molecule, how does the Potency read?
Answer: inactive

Question: With CC(C)/C=C1\CC/C(=C\c2ccc(N(C)C)cc2)C1=O as the molecule, how does the Potency read?
Answer: inconclusive: 2.51 µM [inhibitor, full curve]

Question: Which Potency does the source give for Cc1cc(C)n2cc(COc3ccc4ccccc4c3)nc2n1 here?
Answer: inactive

Question: For O=C(Cc1ccccc1)OCCN1CCOCC1, which Potency is on record?
Answer: inactive

Question: Which Potency does the source give for Cc1ccc(NC(=S)NCCN(C2CCCCC2)C2CCCC2)cc1 here?
Answer: inconclusive: 14.1 µM [inhibitor, single point]

Question: For CC[C@]12c3[nH]c4ccc(Cl)cc4c3CCN1C(=O)[C@@H](CC(=O)NCCC1=CCCCC1)C[C@@H]2C(=O)N1CCN(C(=O)c2ccco2)CC1, which Potency is on record?
Answer: active: 31.6 µM

Question: Which Potency does the source give for CN(CC(=O)Nc1ccc(F)c(F)c1F)C(=O)CCc1nc2sc3c(c2c(=O)[nH]1)CCCC3 here?
Answer: inconclusive: 28.2 µM [inhibitor, single point]

Question: With COc1ccc(CC(=O)Nc2sc3c(c2C(N)=O)CCCC3)cc1OC as the molecule, how does the Potency read?
Answer: inconclusive: 12.6 µM [inhibitor, single point]

Question: Which Potency does the source give for CC(C)CC(=O)Nc1cccc(NC(=O)CC(C)C)n1 here?
Answer: inconclusive: 10 µM [inhibitor, partial curve]

Question: With Cc1cc(-c2nn(-c3ccccc3F)cc2CN2CCC(C(N)=O)CC2)c(C)s1 as the molecule, how does the Potency read?
Answer: inactive

Question: With O=C(NCCc1c[nH]c2ccccc12)C(=O)c1c[nH]c2ccccc12 as the molecule, how does the Potency read?
Answer: inactive

Question: With COc1ccc(CNC(=O)C2CCN(C(=O)c3csc(Nc4ccc(C)cc4)n3)CC2)cc1 as the molecule, how does the Potency read?
Answer: active: 11.2 µM

Question: With CN1CCc2nc(SCC(=O)OC(C)(C)C)c(C#N)cc2C1 as the molecule, how does the Potency read?
Answer: active: 3.98 µM

Question: For COc1cc(/C=C2\C(=O)N(C)C(=S)N2C)ccc1O, which Potency is on record?
Answer: inactive

Question: Which Potency does the source give for O=C(CSc1ccccc1)NCCc1ccccc1 here?
Answer: inactive

Question: For CCN1C(=O)C(CC(=O)Nc2ccc(OC)cc2)N(CCCN2CCN(c3ccc(OC)cc3)CC2)C1=S (centres undefined), which Potency is on record?
Answer: active: 11.2 µM

Question: For CC(=O)C1=C(C)N(Cc2ccccc2)C(=O)N[C@H]1CCc1ccccc1, which Potency is on record?
Answer: inconclusive: 31.6 µM [inhibitor, single point]

Question: With CCOc1ccc(Br)cc1C(=O)N/N=C/c1ccccn1 as the molecule, how does the Potency read?
Answer: inconclusive: 11.2 µM [inhibitor, partial curve]

Question: With COc1cccc(C(=O)Nc2ccccc2N2CCOCC2)c1 as the molecule, how does the Potency read?
Answer: inconclusive: 0.891 µM [inhibitor, full curve, poor fit]

Question: Which Potency does the source give for O=C(c1ccc2c(c1)OCO2)C1CCCN(C2CCN(CCc3ccccc3)CC2)C1 (centres undefined) here?
Answer: active: 3.55 µM

Question: Which Potency does the source give for CSc1cccc(N2CC(C(=O)Nc3cccc(S(=O)(=O)N4CCCC4)c3)CC2=O)c1 (centres undefined) here?
Answer: inconclusive: 0.501 µM [inhibitor, full curve, poor fit]

Question: For O=C(Nc1ccc2c(c1)OCO2)c1noc2c1CCCCC2, which Potency is on record?
Answer: inactive

Question: With Cc1ccc(NC2CCCN(C(=O)c3ccc(-n4ccnc4)cc3)C2)cc1C (centres undefined) as the molecule, how does the Potency read?
Answer: inactive

Question: With O=C(CSc1ccc2ccccc2n1)c1ccccc1 as the molecule, how does the Potency read?
Answer: inconclusive: 10 µM [inhibitor, partial curve]
